{"source": "PubChem BioAssay (NCATS)", "note": "This list was built around the results that the source calls inconclusive (neither active nor inactive); the mix of calls is not that of the screen. No potency is given beside an inconclusive call; the fits are too rough. Activity calls are given as the source filed them. Calls come from the whole dose curve; as a rule, active = well fitted inhibition curve with a large enough effect; inconclusive = small, poorly fitted or top-dose-only effect, or another doubt; inactive = no such curve, though single readings can be large or run the other way. Potency is the fitted concentration of half-maximal effect; tags give direction and shape of the fitted curve."}
{"molecular_target": "DNA polymerase eta (Homo sapiens) (UniProt Q9Y253)", "sequence (Q9Y253 whole entry, looked up)": "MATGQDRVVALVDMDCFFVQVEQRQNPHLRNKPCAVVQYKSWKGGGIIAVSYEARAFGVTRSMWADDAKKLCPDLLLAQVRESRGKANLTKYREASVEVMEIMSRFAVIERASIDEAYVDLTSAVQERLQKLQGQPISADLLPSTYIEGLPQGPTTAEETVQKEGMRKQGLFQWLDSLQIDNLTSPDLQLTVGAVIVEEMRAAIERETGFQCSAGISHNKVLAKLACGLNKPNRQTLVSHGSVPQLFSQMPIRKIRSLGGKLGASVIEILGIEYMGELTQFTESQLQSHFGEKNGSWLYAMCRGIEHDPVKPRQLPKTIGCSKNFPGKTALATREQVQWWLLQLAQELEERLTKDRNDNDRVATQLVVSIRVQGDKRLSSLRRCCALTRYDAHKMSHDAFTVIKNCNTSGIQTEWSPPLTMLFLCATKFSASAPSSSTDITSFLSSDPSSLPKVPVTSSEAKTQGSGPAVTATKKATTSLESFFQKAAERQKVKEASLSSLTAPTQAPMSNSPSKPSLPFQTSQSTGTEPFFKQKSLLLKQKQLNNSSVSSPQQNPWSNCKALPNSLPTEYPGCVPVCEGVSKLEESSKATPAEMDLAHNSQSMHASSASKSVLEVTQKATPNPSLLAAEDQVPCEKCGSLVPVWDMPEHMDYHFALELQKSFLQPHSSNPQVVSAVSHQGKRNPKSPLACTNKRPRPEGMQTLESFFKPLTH", "test": "qHTS for Inhibitors of Polymerase Eta: Confirmatory Assay for Cherry-picked Compounds (AID 720502)", "settings": "Pol eta primer extension, TAMRA/BHQ fluorescence, 10 min", "procedure,_shortened": "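Plates with 10 nM enzyme and compound stood 15 min at room temperature before substrate addition (50 nM final). Displacement of the TAMRA reporter from the BHQ-2 template was tracked for 10 min.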"}
{"smiles": "CCN(CC)C(=O)CC(c1cc(OC)c(OC)c(OC)c1)c1c(OC)cc(OC)c2c(-c3ccccc3)cc(=O)oc12", "note": "(centres undefined)", "Potency": "active: 60.1 µM"}
{"smiles": "CCOc1ccc(Cc2c(C)[nH]c3ccc(C(=O)O)cc3c2=S)cc1", "Potency": "inconclusive [inhibitor, single point]"}
{"smiles": "O=C(O)c1ccc(N/N=C/C2=C(N3CCOCC3)C(=C\\c3ccccc3)/CC2)cc1", "Potency": "inconclusive [inhibitor, single point]"}
{"smiles": "O=C(CCC(=O)c1cccs1)NNC(=O)c1ccccc1O", "Potency": "inconclusive [inhibitor, single point]"}
{"smiles": "CS(=O)(=O)C1=NSC2=NC(=O)/C(=C\\c3cccn3-c3ccccc3Cl)C(=N)N21", "Potency": "inconclusive [inhibitor, single point]"}
{"smiles": "Cc1ccc2nc(-c3ccc(O)c(O)c3)cn2c1", "Potency": "inconclusive [inhibitor, single point]"}
{"smiles": "Nc1ccc(S(=O)(=O)c2cc(O)c3ccccc3c2O)cc1", "Potency": "inconclusive [inhibitor, single point]"}
{"smiles": "CCC1=NN2C(=N)/C(=C\\c3cccn3-c3cccc(Cl)c3)C(=O)N=C2S1", "Potency": "inconclusive [inhibitor, single point]"}
{"smiles": "CCOC(=O)C(=O)Nc1nc(-c2ccc3c(c2)CCN3C(=O)C2CC2)c(C)s1", "Potency": "inconclusive [inhibitor, partial curve]"}
{"smiles": "COc1ccc(/C=N/NC(=O)c2ccc(O)cc2O)cc1CSc1ccccn1", "Potency": "inconclusive [inhibitor, single point]"}
{"smiles": "O=C(c1cccnc1)N1C2C=CC(C2)C1(C(F)(F)F)C(F)(F)F", "note": "(centres undefined)", "Potency": "inconclusive [inhibitor, single point]"}
{"smiles": "COc1cccc(-n2c(C)cc(/C=C3/C(=N)N4C(=NC3=O)SN=C4S(C)(=O)=O)c2C)c1", "Potency": "inconclusive [inhibitor, single point]"}
{"smiles": "O=S(=O)(Nc1nc(-c2ccco2)c(-c2ccco2)s1)c1ccc(F)cc1F", "Potency": "inconclusive [inhibitor, single point]"}
{"smiles": "O=C1C2C3C=CC(CC3)C2C(=O)N1/N=C/c1ccc(O)c(O)c1", "note": "(centres undefined)", "Potency": "inconclusive [inhibitor, single point]"}
{"smiles": "Cc1ccc(C(=O)OCC(=O)c2ccc(CC(=O)N3CCOCC3)s2)cc1C", "Potency": "inconclusive [inhibitor, single point]"}
{"smiles": "CCc1cc[n+](C2=C([O-])c3ccccc3C(=O)/C2=N\\S(=O)(=O)c2cccs2)cc1", "Potency": "active: 75.7 µM"}
{"smiles": "CN(C)c1ccc2nc3ccc(=O)cc-3sc2c1", "Potency": "inconclusive [inhibitor, partial curve, poor fit]"}
{"smiles": "COc1ccc(/C=N/Nc2nc(C(=O)O)cs2)cc1", "Potency": "inconclusive [inhibitor, single point]"}
{"smiles": "CC(=O)Oc1ccc(C(=O)Nc2cccc(C(=O)c3cccc(NC(=O)c4ccc(OC(C)=O)cc4)c3)c2)cc1", "Potency": "active: 53.6 µM"}
{"smiles": "Cc1cc(C=C2C(=O)CCCC2=O)c(C)n1-c1ccccc1", "Potency": "active: 75.7 µM"}
{"smiles": "Cc1ccc(S(=O)(=O)NN2C(=O)/C(=C\\c3ccc(Cl)cc3)SC2=S)cc1", "Potency": "active: 23.9 µM"}
{"smiles": "O=C1/C(=C\\c2ccc([N+](=O)[O-])cc2)CS(=O)(=O)C/C1=C/c1ccc([N+](=O)[O-])cc1", "Potency": "inconclusive [inhibitor, single point]"}
{"smiles": "COCCCN(C(=O)c1cc(-c2ccco2)nc2ccccc12)c1c(N)n(Cc2ccccc2)c(=O)[nH]c1=O", "Potency": "inconclusive [inhibitor, single point]"}
{"smiles": "CC(C(=O)NC1C(=O)N2C(C(=O)O)=C(CSc3nnnn3C)CSC12)n1cc(Br)cn1", "note": "(centres undefined)", "Potency": "inconclusive [inhibitor, single point]"}
{"smiles": "CCCCC1C(=O)CC[C@H]2[C@@H]1CC(=O)[C@@H]2C/C=C\\CCCC(=O)O", "note": "(some centres undefined)", "Potency": "inconclusive [inhibitor, single point]"}
{"smiles": "Cc1nnc(NS(=O)(=O)c2ccc(N=Nc3ccc(N)nc3N)cc2)s1", "Potency": "active: 47.8 µM"}
{"smiles": "C=CCN(CC=C)CC(=O)Nn1c(C)ccc1C", "Potency": "inconclusive [inhibitor, single point]"}
{"smiles": "O=C(CN1C(=O)N/C(=C\\c2cccn2-c2cccc(C(=O)O)c2)C1=O)Nc1ccc(Cl)cc1", "Potency": "inconclusive [inhibitor, single point]"}
{"smiles": "Cc1ccc2nc(/C(C#N)=C/c3cccc(Br)c3)[nH]c2c1", "Potency": "active: 60.1 µM"}
